# Experimental data taken from paper PMC12040169 (PLOS Biology, 2025).
# The list shows a part of the results.
# Test system: T1, C. trachomatis L2/434/Bu expressing GFP (CTL2-GFP)
# T1 construct: L2/434/Bu GFP intracellular growth in HeLa cells
# Set-up: species or system HeLa; C. trachomatis total inclusion area by high-content imaging, normalised to DMSO
# Settings: total inclusion area; 28.5 h, 10 µM; inhibitor
# In short: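 High-content images of fixed, Hoechst-stained infected cultures supply inclusion area and count (growth) plus nuclei number (viability), complementing bulk GFP/resorufin fluorescence. MIC determination is unchanged from the primary assay.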
row,SMILES,% of control remaining
1,CCCc1ccc(S(=O)(=O)Nc2c(C(=O)OC)sc3ncccc23)cc1 [CBK050653],101.838
2,Cc1cc(Cl)ccc1CNC(=O)/C=C/c1ccc(C(C)C)cc1 [CBK149615],104.495
3,COc1ccc(-c2nn(-c3ccccc3)cc2/C=C2\SC(N3CCC(C(N)=O)CC3)=NC2=O)cc1 [CBK265178],79.2617
4,CC(C)(C)c1n[nH]c(C2CN(C(=O)CCCn3cccn3)CCO2)n1 (stereo not shown) [CBK305198],21.0532
5,Cc1cccn2c(=O)c(/C=C3\SC(=S)N(CCCC(=O)O)C3=O)c(N3CCC(C)CC3)nc12 [CBK264793],120.105
6,Cc1cc(NC(=O)C(=O)NCCN2CCN(S(C)(=O)=O)CC2)ccc1Br [CBK265401],106.311
7,O=C(O)COCC(=O)N1CCC2(CC1)NC(=O)Cc1c2ccc2ccccc12 [CBK047168],110.658
8,COCCCn1c(=O)[nH]c2ncc(-c3cccc(NC(C)=O)c3)nc21 [CBK064433],88.5985
9,COc1ccc(-c2nc3ncccc3cc2O)cc1C [CBK073700],101.468
10,Cc1ccc(O)c(CN(CCCn2ccnc2)CC2CC=CCC2)c1 (stereo not shown) [CBK282829],92.0137
11,C/C(=N/Nc1ccc([N+](=O)[O-])cc1[N+](=O)[O-])C1CC1 [CBK260921],103.267
12,Cc1ccccc1C(NC(=O)C1CCN(C(=O)c2ccccc2)CC1)c1ccccn1 (stereo not shown) [CBK059720],99.8369
13,O=S(=O)(N1CCCCC1)N1CCCN(S(=O)(=O)N2CCCCC2)CC1 [CBK268939],92.199
14,CC(C)CNc1nnc(-c2ccccc2[N+](=O)[O-])s1 [CBK076755],102.514
15,O=C(N[C@H]1CO[C@H]2[C@@H]1OC[C@@H]2n1nnnc1Oc1ccc(-n2ccnc2)cc1)c1ccco1 [CBK289486],120.469
16,O=C(NCc1ccccc1)C1CCN(C(=O)Cc2c(F)cccc2Cl)CC1 [CBK297919],81.7317
17,Cc1ccc(-c2noc(CSc3nnc(-c4ccncc4)n3-c3ccc(C)cc3)n2)cc1 [CBK268879],79.2179
18,COc1ccc(C[C@@]23CCC(=O)C[C@@H]2N(C)CC3)cc1 [CBK009720],107.948
19,O=C(N/N=C/c1ccc([N+](=O)[O-])cc1)c1ccccc1Cl [CBK261775],93.4928
20,Cn1c(=O)c2c(nc(CN3CCCCC3)n2CCN2CCOCC2)n(C)c1=O [CBK269281],129.493
21,O=C(O)CCN1CCCCC1 [CBK012168C],84.682
22,CC(C)NC(=O)NC[C@H]1C[C@@H]2CCN1C[C@@H]2c1cc(-c2ccccc2)nn1C [CBK289097],102.656
23,Cc1cccn2c(=O)cc(CN3CCCC(N4CCNC4=O)C3)nc12 (stereo not shown) [CBK304947],98.9322
24,Cc1cc(Cl)cc(Cl)c1S(=O)(=O)Nc1nc2c(s1)CN(C(=O)N1CCOCC1)CC2 [CBK000931],112.208
25,Cc1ccc2nc(C(=O)O)cc(OCC(=O)Nc3ccccc3F)c2c1 [CBK287255],69.3613
26,CC(NC(=O)N1CCSCC1)c1cccc(N2CCCC2)c1 (stereo not shown) [CBK305230],54.8808
27,OC(COc1cccc2c1CCCC2)CN1CCC(O)(c2ccc(Cl)c(C(F)(F)F)c2)CC1 (stereo not shown) [CBK003581],43.1428

row,SMILES,% of control remaining
1,COCCn1c(CO)nnc1[C@H]1C[C@@H](NC(=O)c2cc(F)ccc2F)C1 [CBK307032],29.2846
2,CCOC(=O)c1cnc2ccc(Br)cc2c1NCc1cccnc1 [CBK265030],119.428
3,Cc1nc(CCNCc2c(C(C)C)nn(C)c2N(C)C)cs1 [CBK304002],47.5368
4,Cc1cc(C)nc(NCCC(=O)O)n1 [CBK270154],98.9599
5,CN(CC(=O)C(C#N)c1ccccc1)Cc1ccccc1 (stereo not shown) [CBK269432],68.8058
6,O=C(CN1CCC(c2cccc(Cc3cccc(F)c3)n2)CC1)Nc1nccs1 [CBK286090],83.0834
7,CC(C)c1ccc(S(=O)(=O)NCCC(C)(C)C)cc1 [CBK043640],90.5474
8,CC(C)NC(=O)CN1C(=O)N2CCCN=C2c2ccc(Cl)cc21 [CBK284390],86.343
9,O=C1C2(Cc3ccccc3)CN3CN(C2)CC1(Cc1ccccc1)C3 [CBK261341],95.8608
10,O=C1C[C@@H]2CCN(C(=O)COc3ccccc3)C[C@@H]2CCN1Cc1cccnc1 [CBK288793],105.72
11,Cc1cnn(CC2CC2)c1NC(=O)Cc1csc(N2CCCC2=O)n1 [CBK304940],68.3333
12,CCN1CCC(NCc2ccc(OCC(N)=O)cc2)CC1 [CBK306106],52.7706
13,CC(CC(=O)O)n1nnc2ccccc21 (stereo not shown) [CBK264139],102.409
14,O=C(Cc1ccccc1)Nc1ccc(C(=O)O)cc1NC(=O)Cc1ccccc1 [CBK287049],56.1677
15,CCC(C)(C)c1nnc(NC(=O)COc2ccc(Cl)cc2Cl)s1 [CBK058435],36.9844
16,COc1ccc(C(c2ccccn2)N(C)C(=O)C2CCN(S(=O)(=O)C(C)C)CC2)cc1 (stereo not shown) [CBK060280],94.7025
17,COc1ccc(-c2cnc(Nc3ccc(N4CCOCC4)cc3)c3nccn23)cn1 [CBK091238],152.66
18,FC(F)C(F)(F)Oc1cccc(Nc2nccn3ccnc23)c1 [CBK066284],81.8788
19,Cn1cnnc1SCC(=O)N1CCc2ccccc21 [CBK287576],108.666
20,O=C(CC1CCCCC1)N1CCC(n2nc(C3CC3)ccc2=O)CC1 [CBK284241],107.522
21,O=C(CC(CN1CCN(Cc2cccc(Cl)c2)CC1)C(=O)O)Nc1cccc(O)c1 (stereo not shown) [CBK286811],96.3122
22,c1cnc2c(-c3cn4ccnc4c(NC4CC4)n3)cccc2c1 [CBK037911],84.99
23,O=C(CSCc1ccc(Br)cc1)NCC1CCCO1 (stereo not shown) [CBK268506],129.401
24,CC(C)NC(=O)CCn1c(-c2ccncc2)cc2cccnc21 [CBK284931],97.7414
25,O=C(Nc1ccc(C(=O)Nc2cccc(-c3nc4ccccc4o3)c2)cc1)c1ccc([N+](=O)[O-])cc1 [CBK262606],111.539
26,COC(=O)c1c(NC(=S)NCc2ccccn2)sc(C(=O)N(C)C)c1C [CBK267055],117.19
27,c1nc(NCCN2CCOCC2)c2c3c(sc2n1)CCCCC3 [CBK268418],84.542

row,SMILES,% of control remaining
1,COc1ncccc1C(=O)Nc1ccc(C)nc1C [CBK200292],90.3542
2,COc1ccc(S(=O)(=O)Nc2cccc(C(=O)N3CCOCC3)c2)cc1OC [CBK039010],78.6919
3,CC(NC(=O)CCC(=O)O)C12CC3CC(CC(C3)C1)C2 (stereo not shown) [CBK287105],99.824
4,Cn1cc(C2C[S+]([O-])CCN2Cc2csc3ccccc23)cn1 (stereo not shown) [CBK304085],44.0749
5,c1ccc2c(c1)OCC(c1nn3cnnc3s1)O2 (stereo not shown) [CBK269277],77.199
6,COc1ccc(NC(=O)CCC(=O)N2CCC(C(=O)O)CC2)cc1 [CBK286588],37.6799
7,CCCOC1CCCN(Cc2c(C)n(CC(N)=O)c3ccccc23)C1 (stereo not shown) [CBK282797],108.943
8,COc1ccc(NC(=O)NS(=O)(=O)c2sc3ccc(Cl)cc3c2C)cc1OC [CBK156300],104.544
9,COc1ccc(CCNC(=O)c2cnc3sc(C)cn3c2=O)cc1OC [CBK287709],80.0925
10,O=C1N/C(=N/N=C\c2cccc([N+](=O)[O-])c2)SC1Cc1ccc(Br)cc1 (stereo not shown) [CBK263125],97.3414
11,O=C1CC(N2CCN(c3ccccn3)CC2)C(=O)N1CCc1ccccc1 (stereo not shown) [CBK262282],93.1981
12,FC(F)(F)c1cc(-c2cc(N3CCC(N4CCCCC4)CC3)ncn2)cc(C(F)(F)F)c1 [CBK037692],76.3721
13,CCNC(=O)C1CCCN(Cc2ncc(C)c(OC)c2C)C1 (stereo not shown) [CBK305081],33.9406
14,NNC(=O)CSc1nnc(-c2ccccc2)n1-c1ccccc1 [CBK223486],107.482
15,O=C(CSc1nnc(-c2ccncc2)n1-c1ccc(Cl)cc1)Nc1ccccc1-c1ccccc1 [CBK266205],98.477
16,CCCCCn1c(=O)c(-c2nc3ccccc3c(=O)[nH]2)c(O)c2ccccc21 [CBK291215],94.3442
17,CCOC(=O)c1cnc2ccccc2c1NCCN1CCOCC1 [CBK304328],117.346
18,FC(F)(F)Oc1ccccc1-c1nnc(NC2CCCCCC2)s1 [CBK074041],114.23
19,CN1CCC2(CC1)CN(C(=O)C1CC1)Cc1ccccc1O2 [CBK284967],85.817
20,O=[N+]([O-])c1cc(-c2nc(-c3ccco3)c(-c3ccco3)[nH]2)ccc1Br [CBK019778],106.085
21,CC1CCN(S(=O)(=O)c2cccc(S(=O)(=O)c3cccc(S(=O)(=O)N4CCC(C)CC4)c3)c2)CC1 [CBK261731],87.1015
22,CCN1C(=O)CC2(C1=O)C(=O)N(CCCOc1ccccc1OC)c1ccccc12 (stereo not shown) [CBK075498],93.9519
23,Cc1nc2c(c(=O)[nH]1)CN(Cc1ccc(Cl)cc1)CC2 [CBK282415],101.389
24,c1cnc2[nH]c([C@H]3CCCO3)c(CN3CCCCC3)c2c1 [CBK282284],102.962
25,CC(C)c1ccc(/C=C/C(=O)NCc2ccc(NS(C)(=O)=O)cc2)cc1 [CBK161512],37.8151
